# From PubChem BioAssay AID1508623 (National Center for Advancing Translational Sciences (NCATS), 2021)
# Out of some 48,000 compounds screened, about 450 (0.94%) were called active. Another 19% or so got no clear call; they are omitted. The call rests on the fitted dose curve; in most records, active means well fitted inhibition curve with a large enough effect; inconclusive means small, poorly fitted or top-dose-only effect; inactive means no such curve, though single readings can be large or run the other way. Some of the results follow.
# Assay: Primary qHTS for Identification of Small Molecule Inhibitors of Huntingtin Promoter Activity; further: nearly all actives have a fitted effect of over 50% in size
# Details: HEK293 HTT promoter firefly luciferase reporter (activity 0% = vehicle and -100% = no light), 24 h; series mostly up to 57.5 µM; activity change, negative = inhibition: at the top concentration
# Procedure, shortened: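 Firefly luciferase readout (Dual-Glo, 10 min RT) after 24 h, 37 °C compound exposure (final up to 57.5 uM) of HEK293 reporter cells cultured 24 h beforehand; PTC124 at 50 uM final as control inhibitor; activity scaled vehicle 0%, zero RLU -100%.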
row,SMILES,"activity change, negative = inhibition"
1,Cc1cccc(NC(=O)Cn2cc(C(=O)c3ccccc3)c3ccccc32)c1,inactive: -36.5%
2,CC(=Cc1csc(C)n1)[C@@H]1C[C@H]2O[C@@H]2CCC[C@H](C)[C@@H](O)[C@@H](C)C(=O)C(C)(C)[C@@H](O)CC(=O)O1,inactive: -10.1%
3,O=C(COc1cccc(Cl)c1)N1CCN(CCc2ccncc2)CC1,inactive: -9.42%
4,O=S1(=O)N(Cc2ccccc2)CCCN1Cc1cccc(Cl)c1,inactive: -21.4%
5,Cc1ccc(Cn2cccc(C(=O)Nc3cc([N+](=O)[O-])ccc3C)c2=O)cc1,inactive: 21.1%
6,CC(C)NCC(O)c1ccc(N)c(C#N)c1 (stereo not drawn),inactive: -1.75%
7,CNCC(O)c1ccc(O)cc1 (stereo not drawn),inactive
8,O=C(COc1ccccc1Cl)N1CCN(CCc2ccncc2)CC1,inactive: -17.6%
9,Cc1cccc(-n2c(/C=C/c3ccccc3O)nc3ccccc3c2=O)c1,inactive: -9.47%
10,Cc1sc2c(c1C)C(c1ccc(Cl)cc1)=N[C@@H](CC(=O)Nc1ccc(O)cc1)c1nnc(C)n1-2,inactive: 70.6%
11,CCOC(=O)c1ncn2c1CN(C)C(=O)c1c(I)cccc1-2,inactive: -0.509%
12,O=C(O)Cc1ccccc1,inactive: -4.03%
13,Clc1cccc(SC2CCNCC2)n1,inactive: 3.19%
14,COc1ccc(C(=O)c2c(C)n(CCN3CCOCC3)c3ccccc23)cc1,inactive
15,c1cc2c(c(N3CCNCC3)c1)OCCO2,inactive: 7.86%
16,NP(N)(=O)NC(=O)c1ccc(F)cc1,inactive: -2.17%
17,COc1ccc(Cl)cc1NC(=O)CN1C(=O)CN=C(c2ccccc2)c2cc(Cl)ccc21,inactive: -39.3%
18,CCCCC1C(=O)NC(=O)N(C2CCCCC2)C1=O (stereo not drawn),inactive: -5.73%
19,CC(C)(C)OC(=O)c1ncn2c1[C@@H]1CCCN1C(=O)c1c(Br)cccc1-2,inactive: -12.6%
20,CCN(CC)CCOC(=O)C(O)(c1ccccc1)c1ccccc1,inactive: -5.98%

row,SMILES,"activity change, negative = inhibition"
1,O=c1c2ccccc2nc(/C=C\c2ccccc2F)n1-c1ccc(O)cc1,inactive: -35.8%
2,C[C@]12CC[C@H]3[C@@H](CCC4=CC(=O)CC[C@@]43C)[C@@H]1CC[C@@H]2C(=O)O,inactive: 0.511%
3,Cc1c(C(c2ccc(Cl)cc2Cl)c2c(O)c3ccccc3oc2=O)c(=O)n(-c2ccccc2)n1C (stereo not drawn),inactive: -27.2%
4,COc1ccc(C(CN(C)C)C2(O)CCCCC2)cc1 (stereo not drawn),inactive
5,COc1ccc(C(=O)Nc2ccc(Cl)cc2C(=O)c2ccccc2)c(OC)c1,inactive: -24.7%
6,Cc1ccc(OCC(=O)N2CCN(CCc3ccncc3)CC2)cc1C,inactive: -10.3%
7,CC1COC2(c3ccccc3Cl)c3cc(Cl)ccc3NC(=O)CN12 (stereo not drawn),inactive: -9.42%
8,Cc1ccc(NC(=O)N(Cc2ccc3c(c2)OCO3)C2CCN(Cc3ccccc3)CC2)cc1F,inactive: -22%
9,C[C@@H]1O[C@@H](O[C@@H]2C=C3CC[C@@H]4[C@H](CC[C@]5(C)[C@@H](c6ccc(=O)oc6)CC[C@]45O)[C@@]3(C)CC2)[C@H](O)[C@H](O)[C@H]1O,inactive: -39.9%
10,C#CCN(C)[C@H](C)Cc1ccccc1,inactive
11,O=C(Nc1ccc(Br)cc1)c1cc(Br)cc(Br)c1O,inactive: 25%
12,c1ccc2c(CN3CCNCC3)cccc2c1,inactive: 1.63%
13,ClC1=C(Cl)C2(Cl)C(CBr)CC1(Cl)C2(Cl)Cl (stereo not drawn),inactive: -3.94%
14,Cc1ccc(-n2c(/C=C/c3ccc(Br)s3)nc3ccccc3c2=O)cc1C,inactive: -14.8%
15,CCN(CCO)CCn1c(Cc2ccccc2)nc2c1c(=O)n(C)c(=O)n2C,inactive: 8.84%
16,C=CCOC(Cn1ccnc1)c1ccc(Cl)cc1Cl (stereo not drawn),inactive: -22.7%
17,CC(=O)Nc1cc([As](=O)(O)O)ccc1O,inactive: 7.96%
18,C=CCN1CC[C@]23CCCC[C@H]2[C@H]1Cc1ccc(O)cc13,inactive: 0.274%
19,FC(F)(F)c1cccc(C2=CCN(CCc3ccc4ccccc4c3)CC2)c1,inactive: -4.54%
20,Cc1nnc(NC(=O)c2cccn(Cc3ccc(Cl)cc3)c2=O)s1,inactive: -4.14%

row,SMILES,"activity change, negative = inhibition"
1,CC(C)NCC(O)c1ccccc1Cl (stereo not drawn),inactive: -4.1%
2,O=C(Nc1ccccc1-c1ccc(Cl)cc1)c1cccnc1Cl,inactive: -0.754% [at 116 µM]
3,COc1ccc2c(C(=O)c3ccc(Cl)cc3)c(C)n(CC(=O)O)c2c1,inactive: -15.3%
4,CCN1C[C@]2(OC(=O)c3ccccc3NC(C)=O)CC[C@H](OC)[C@@]34[C@H]5CC6[C@@H](OC)C[C@](O)(C(C[C@@H]23)[C@@H]14)[C@@]5(O)[C@@H]6OC,inactive: -2.2%
5,CCC(C(N)=O)N1CCCC1=O (stereo not drawn),inactive: 6.1%
6,CC(=O)N1CC(=O)Nc2ccc(F)cc2C1c1ccccc1 (stereo not drawn),inactive: -15.8%
7,O=S(=O)(O)C(F)(F)C(F)(F)C(F)(F)C(F)(F)F,inactive: 10% [at 116 µM]
8,CCCCCCCCC(=O)NCc1ccc(O)c(OC)c1,inactive: -5.76%
9,CCC12CN3CC(CC)(CN(C1)C3c1ccccn1)C2=O (stereo not drawn),inactive: -18.9%
10,COP(=S)(OC)Oc1cc(Cl)c(Cl)cc1Cl,inactive: 8.38%
11,CCCSc1nc2ccccc2c(=O)n1-c1ccccc1OC,inactive: -20.8%
12,Cc1cc(C)cc(-n2c(=O)[nH]c3ccccc3c2=O)c1,inactive: -10.2%
13,Nc1ccc([As](=O)(O)O)cc1,inactive: 1.67%
14,O=C1CC(c2c(F)cccc2Cl)c2c(c3ccccc3oc2=O)O1 (stereo not drawn),inactive: 14.1%
15,CCOP(=O)(NC(C)C)Oc1ccc(SC)c(C)c1 (stereo not drawn),inactive: -17.7% [at 116 µM]
16,CC1OC(C)OC(C)O1 (stereo not drawn),inactive: 9.57%
17,Cc1nnc(NC(=O)c2cccn(Cc3ccccc3F)c2=O)s1,inactive: 13.7%
18,S=C(SSC(=S)N1CCCCC1)N1CCCCC1,inactive: -6.86%
